In the supplement of paper PMC5499739:
Whole data set: some 16,000 sequences, median “Z-score” near -0.37, cut for the highest 2% near 3.1. The list shows a part of the results.

system: RBM10 RRM1-ZnF-RRM2 (GST-tagged construct); assay: RNAcompete 7-mer binding Z-score; higher = stronger binding preference
Protocol: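 RNAcompete: 20 pmol GST-tagged RBM10 RNA-binding constructs were incubated with a designed RNA pool of about 241,000 sequences up to 41 nt (1.5 nmol) on glutathione beads for 30 min at 4 °C and washed. Bound RNAs were identified by microarray hybridisation. Each RNA 7-mer is scored by a one-sided Z-score of its enrichment, computed over probes that contain the 7-mer within longer pool sequences.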

| Sequence | RNAcompete 7-mer binding Z-score |
| --- | --- |
| AGGACCC | -0.508 |
| GUCCUCA | -0.781 |
| CGAUGAA | -0.00148 |
| CAAAUCG | -0.409 |
| UACACGU | -0.391 |
| AUGAUCC | -0.624 |
| UUCUAAG | -0.657 |
| AGUCACC | -0.675 |
| UUCUCAG | -0.606 |
| UAACAUA | -0.439 |
| UGCGCUG | -0.103 |
| CCAGGGA | 1.51 |
| UGUCAGG | 0.45 |
| UGCUCGU | -0.606 |
| AAGGAUC | 1.54 |
| UUCCCAA | -0.683 |
| UGAAAUU | -0.686 |
| AUGACCC | -0.57 |
| UGGAGUC | 0.807 |
| GCUACCC | -0.752 |
| GCGGUUA | 1.19 |
| CAGGCCG | 0.0786 |
| GGAAUGG | 4.19 |

| Sequence | RNAcompete 7-mer binding Z-score |
| --- | --- |
| UGGUGAA | 1.22 |
| UGUACGU | -0.253 |
| AUCCGCC | -0.97 |
| GAAGCGC | 0.159 |
| GAAGGUA | 4.04 |
| GUAAGUU | 0.246 |
| GGAAAUC | 0.931 |
| UAAGAAC | -0.231 |
| ACGAAAA | -0.111 |
| UUUGUUA | -0.748 |
| GUUUAUG | 0.0386 |
| AGGGGUC | 1.76 |
| GUCAUAU | -0.209 |
| UGGACCC | -0.147 |
| ACUCUAG | -0.683 |
| CUCCUAA | -0.861 |
| AAUUGAA | -0.238 |
| UGUCCUA | -0.559 |
| UGCCUUU | -0.843 |
| GCACUUA | -0.734 |
| UGGGAAC | 2.25 |
| UCUGUUA | -0.795 |
| GAGCUAG | 0.399 |

| Sequence | RNAcompete 7-mer binding Z-score |
| --- | --- |
| UAAGACU | -0.424 |
| GUGAACA | 0.767 |
| ACGGUAA | 0.829 |
| CAACCCG | -0.584 |
| AGAACUU | -0.708 |
| ACCUUGA | -0.744 |
| ACGUGGU | 1.08 |
| GGGAGAA | 2.5 |
| AAACGCA | -0.213 |
| GUAUCUU | -0.668 |
| GGCAACC | 0.0896 |
| CCAUCGC | -0.803 |
| GCUAUGU | -0.358 |
| UGUCCAA | -0.704 |
| AACCAAG | 0.0459 |
| AUAAAGA | 0.0131 |
| AUUUCCU | -0.777 |
| UGCCGGU | -0.0998 |
| ACGCGUG | 0.0568 |
| CCUAACA | -0.766 |
| GUGUCUC | -0.544 |
| AAUGGCC | 0.447 |
| UUCCGCG | -0.621 |

| Sequence | RNAcompete 7-mer binding Z-score |
| --- | --- |
| AUCCACG | -0.504 |
| AUAACUC | -0.704 |
| GGGACGU | 1.73 |
| CUUUGAA | -0.701 |
| GACUACG | -0.14 |
| AGAUAUU | -0.351 |
| CCACGUU | -0.548 |
| GCGGUCU | -0.0161 |
| AAAUUUA | -0.402 |
| UCCGGCA | -0.661 |
| UAAUGCU | -0.672 |
| UGAACUC | -0.588 |
| GCCACAU | -0.664 |
| CGCAGGU | 0.53 |
| UGCAAGU | 0.0495 |
| UCCGACG | -0.468 |
| GCUUGUU | -0.792 |
| AAUAAUG | 0.0386 |
| UACUUGA | -0.697 |
| AUAAGUU | -0.249 |
| UAUUUCA | -0.613 |
| GAUUGGU | 1.62 |
| AAACAUG | -0.0634 |

| Sequence | RNAcompete 7-mer binding Z-score |
| --- | --- |
| UGAACGU | -0.165 |
| CGUGGGC | 2.21 |
| UUUGGGG | 2.13 |
| AUAUUCA | -0.384 |
| AGCCAUU | -0.879 |
| CAUGUUU | -0.632 |
| GAGCUCA | -0.814 |
| AUCUUCC | -0.679 |
| AUCAGAG | 0.508 |
| AGAUAUC | -0.653 |
| GCGACUU | -0.533 |
| GGACCAG | 0.884 |
| CGUCUCA | -0.708 |
| GUAUAUC | -0.235 |
| UCUUUCA | -0.694 |
| UUUUGCG | -0.737 |
| AUUAUAU | -0.362 |
| UCGUUGC | -0.588 |
| UUUCGAG | -0.311 |
| UUGCGGC | -0.0998 |
| AAUUAGU | -0.238 |
| CAUGCGA | -0.00148 |
| GGAUGGA | 3.36 |

| Sequence | RNAcompete 7-mer binding Z-score |
| --- | --- |
| UUGGCAG | 0.629 |
| CCUCCCG | -0.737 |
| GGAUUGU | 0.822 |
| CCGUCCC | -0.643 |
| UAAUAAU | -0.449 |
| CCAAUGG | 0.68 |
| ACACCGU | -0.49 |
| UCGGAUA | 0.184 |
| GCUACCA | -0.515 |
| UGGGACC | 1.52 |
| GUGUCGU | 0.181 |
| CUUGUUU | -0.836 |
| AAUUAGA | -0.216 |
| AAUGUCC | -0.544 |
| CACGAAU | -0.449 |
| AAUUCUG | -0.632 |
| GGUGUAA | 1.64 |
| GCCUUUC | -0.879 |
| UAACGCU | -0.646 |
| UUGGGAU | 1.9 |
| UUUCGUC | -0.726 |
| UACACAU | -0.5 |
| CACCAGU | -0.519 |

| Sequence | RNAcompete 7-mer binding Z-score |
| --- | --- |
| UAUAUCC | -0.57 |
| GCGAUUG | 0.148 |
| GUACUCG | -0.282 |
| UUAAGCG | -0.424 |
| AUCUCGC | -0.894 |
| CGAACAC | -0.38 |
| GACACAC | -0.205 |
| GAAGUAA | 0.589 |
| AGGCGUU | 0.286 |
| UGGAUGA | 1.82 |
| GAGAUAG | 1.31 |
| GCAUAAU | -0.439 |
| AAGCGUG | 0.676 |
| ACUGUUA | -0.595 |
| GGCCGCU | -0.424 |
| CCAGUAG | -0.114 |
| CCCUCGC | -0.646 |
| UCAAGUU | -0.468 |
| GACCAGU | -0.409 |
| UUGUCUU | -0.803 |
| AUGUUCC | -0.701 |
| UUGUCGG | -0.0743 |
| CUGCCCG | -0.541 |

| Sequence | RNAcompete 7-mer binding Z-score |
| --- | --- |
| UAAUAUA | -0.347 |
| UGUGGGG | 3.75 |
| CAAGAGU | 0.348 |
| UUGUACU | -0.81 |
| GCUGACA | -0.289 |
| GUACCAU | -0.18 |
| UGGGGGG | 3.39 |
| UUGGUAC | 0.53 |
| UUUCGCU | -0.806 |
| GGGUGCU | 1.87 |
| AAACCAU | -0.431 |
| AUCAUUC | -0.734 |
| ACAGAGA | 0.192 |
| AGAGUGA | 1.02 |
| CUAAUUA | -0.726 |
| UUAUGUA | -0.42 |
| UGAUGAC | -0.311 |
| UGAGUUG | 0.534 |
| CGCAGCG | 0.341 |
| AAGCCGA | -0.504 |
| GUCCGGG | 0.698 |
| UGGCCUU | -0.577 |
